Publication PMC7819943, “Rice protein-binding microarrays: a tool to detect cis-acting elements near promoter regions in rice”
The list shows a part of the results.

These sequences were tested against T1, OsWOX13 (Oryza sativa, UniProt Q5QMM3 1-267) (assay: protein-binding microarray (RPBM); PBS, 2% BSA, 51.3 ng/ul salmon testes DNA, 50 uM zinc acetate, 200 nM TF, 25 C, 1 h; high values mean tight binding). Conditions: protein: recombinant; tags: N-terminal polyhistidine and DsRed monomer fusion (pET32a); label: CyDye5-dUTP incorporated in the synthesized complementary strand; 3' TTTTT single-stranded linker to array surface; dsDNA, one strand shown.
T1 sequence: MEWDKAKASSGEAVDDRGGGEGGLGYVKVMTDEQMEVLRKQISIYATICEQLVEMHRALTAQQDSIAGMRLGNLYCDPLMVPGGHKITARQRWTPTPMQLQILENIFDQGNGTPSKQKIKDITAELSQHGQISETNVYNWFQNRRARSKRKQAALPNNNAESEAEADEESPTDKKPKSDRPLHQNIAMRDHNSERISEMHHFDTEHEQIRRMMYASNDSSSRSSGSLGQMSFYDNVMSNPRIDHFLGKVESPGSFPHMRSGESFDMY
Procedure, shortened: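 Per-feature fluorescence intensity (arbitrary units), read on an Axon 4000B scanner, is the binding signal. Transcription factors carrying an N-terminal polyhistidine tag and DsRed fusion were expressed in E. coli BL21-CodonPlus and purified on Ni–NTA. A custom Agilent array, made double-stranded by primer extension with Cy5-dUTP and blocked with 2% BSA, was incubated with 200 nM protein in PBS, 2% BSA, salmon testes DNA and 50 µM zinc acetate at 25 °C for 1 h and then washed.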

Sequence | binding signal
AGACAGATTGGGATGAATCAAATGTCCAGCCTACGTGGACCGGAGTCACCTAGTGCAG | 16200 fluorescence intensity (a.u.)
TTCCATACTTAAATTTAATGCTACTTATCTCACATGAAGTCGGAGTCACCTAGTGCAG | 4110 fluorescence intensity (a.u.)
TTCCAAGACAATTGACATCAGGACACAAGCAGGTAGTTAACGGAGTCACCTAGTGCAG | 3690 fluorescence intensity (a.u.)
ATTAAATACATTTAATTATGCCCTTGTACATATTCTCCGCCGGAGTCACCTAGTGCAG | 19600 fluorescence intensity (a.u.)
CAAAGTTTATAAATGATTGGATTATATGGTGTCTTTTGGACGGAGTCACCTAGTGCAG | 27400 fluorescence intensity (a.u.)
ACTAATTGGACAGTTTGCATATAAATCGCGAGACGGATCTCGGAGTCACCTAGTGCAG | 39200 fluorescence intensity (a.u.)
ACAAATTGTTTACGTGCGTCAGGCCGCCGCTGTGATGACACGGAGTCACCTAGTGCAG | 6260 fluorescence intensity (a.u.)
ATGCAATCAAAGGATTTAATTAGAGATGATGCTACAGATCCGGAGTCACCTAGTGCAG | 21300 fluorescence intensity (a.u.)
CATACATCAATCAGTTCTTGATTTGACCGGCATTGTATTGCGGAGTCACCTAGTGCAG | 51200 fluorescence intensity (a.u.)
ATTAATTAGCTCTAGATTAAGCTAATTGCCATCAATGGCTCGGAGTCACCTAGTGCAG | 46400 fluorescence intensity (a.u.)
TATATGGTTATGATTATGTCACGGCTGTTGCCTGACGGGCCGGAGTCACCTAGTGCAG | 3520 fluorescence intensity (a.u.)
GTCTCGTAATTTTCTGTTGAACTATGTAATTGATTTCTTTCGGAGTCACCTAGTGCAG | 10500 fluorescence intensity (a.u.)
AATTAATTTCGGAAAAGGAGAATGAAGTTTGAGAGTGACACGGAGTCACCTAGTGCAG | 3290 fluorescence intensity (a.u.)
ATTAATACTAATTTGTTTCCTTCAACAACTACTGATCGATCGGAGTCACCTAGTGCAG | 13900 fluorescence intensity (a.u.)
TTTGCTAGATTGGAGCAAATCGCATATTCTTAACCCCACCCGGAGTCACCTAGTGCAG | 21600 fluorescence intensity (a.u.)
TTGTGATTTGTGGGATTAGTATCTCTGTCGGTGTCATATCCGGAGTCACCTAGTGCAG | 39600 fluorescence intensity (a.u.)
CATAATTAGTATACTATGACACCGATACCGATAGCTAGACCGGAGTCACCTAGTGCAG | 29500 fluorescence intensity (a.u.)
AGCATCATTGACGTGATTACCGTCCGGTGACTGACGTACGCGGAGTCACCTAGTGCAG | 24200 fluorescence intensity (a.u.)
CCCATCCAATTAACTACAAGACCCCAGTTCATCCAGTGGACGGAGTCACCTAGTGCAG | 14000 fluorescence intensity (a.u.)
GATTTGATTGGTCATTCTGTGCAAAACTGTCCGCGAATGGCGGAGTCACCTAGTGCAG | 44100 fluorescence intensity (a.u.)
TGGGAATAGAAAATGATAATCATATTTGTATATGGATCTCCGGAGTCACCTAGTGCAG | 3640 fluorescence intensity (a.u.)

Sequence | binding signal
CTTGATAGGTATCGACACTACGAGAGTTTACTACTGAATTCGGAGTCACCTAGTGCAG | 24500 fluorescence intensity (a.u.)
ACAAAGAGATTGAACCTAAACCAATCAGAATAGACAACATCGGAGTCACCTAGTGCAG | 11500 fluorescence intensity (a.u.)
TCTGATATGATTTTATATAGTGGGCTTGTTGCCTGACTGTCGGAGTCACCTAGTGCAG | 31500 fluorescence intensity (a.u.)
ATATACTTATAATCAAATCAATAATCCGTGATGGTAATTCCGGAGTCACCTAGTGCAG | 12500 fluorescence intensity (a.u.)
ACACTACAGATGCTGACTTGATTGCGACCAAACATCACGACGGAGTCACCTAGTGCAG | 8290 fluorescence intensity (a.u.)
CATAATTTTAATTTTAATTTTAATTTTATAAAATTTCAGTCGGAGTCACCTAGTGCAG | 42300 fluorescence intensity (a.u.)
CAATTGTACAAAGCACCTTAATTGATAACGAGCGCACAACCGGAGTCACCTAGTGCAG | 7020 fluorescence intensity (a.u.)
AAACAAATGATTTTATTCATTTACTCATTCATCATATCACCGGAGTCACCTAGTGCAG | 10300 fluorescence intensity (a.u.)
CTAATATTTAACTAATTATGTGCTAATGAATCTTCTCATTCGGAGTCACCTAGTGCAG | 13400 fluorescence intensity (a.u.)
TATAACATATTATGTAGCTTAATTTACCGTAGCAACCGGCCGGAGTCACCTAGTGCAG | 4090 fluorescence intensity (a.u.)
TATCAGATTGAATTTACCCTGCTACACAGTTGCCTTTACTCGGAGTCACCTAGTGCAG | 17400 fluorescence intensity (a.u.)
ACCCAAAATTAACTCTAAACTTAAGTTTCAAAATCTAAATCGGAGTCACCTAGTGCAG | 7640 fluorescence intensity (a.u.)
CAAATTTGACCGCCAACGCAACCAATCAGTTGCACAGTTACGGAGTCACCTAGTGCAG | 7360 fluorescence intensity (a.u.)
CAATTCAATCTAAATCTGTCTATACTATTTTAAATATTAACGGAGTCACCTAGTGCAG | 5960 fluorescence intensity (a.u.)
GTTAGTTAATTACTCCAATTAATTGACGCGTCCGTGCGTGCGGAGTCACCTAGTGCAG | 42800 fluorescence intensity (a.u.)
AAACTCAATCAATCATACGTTATTTGGCCTGGTTTAGTTCCGGAGTCACCTAGTGCAG | 40000 fluorescence intensity (a.u.)
GCAGTAATGGACCATTTAGCCGAATGCCAACGCCGAACTACGGAGTCACCTAGTGCAG | 3840 fluorescence intensity (a.u.)
ATCAAATCATTATTCAGACTTGACCTGGTACACAACACAACGGAGTCACCTAGTGCAG | 3330 fluorescence intensity (a.u.)
GGAATTTACAACTAATTGAACATGCTAACATTTGACATATCGGAGTCACCTAGTGCAG | 21500 fluorescence intensity (a.u.)
GAAATTGATTTCCATTATCAATACCAGCTAAATATATTCTCGGAGTCACCTAGTGCAG | 38100 fluorescence intensity (a.u.)
TGAAATTTCTACTGTCATGCTTCCTTGTCCCATTACAACACGGAGTCACCTAGTGCAG | 3640 fluorescence intensity (a.u.)

Sequence | binding signal
AAAACTAATTACACAGTTTGCATAGAAATTGCGAGACGAACGGAGTCACCTAGTGCAG | 26100 fluorescence intensity (a.u.)
ATCAAGTTTAAATTTTGATTATAAGCAAAATTGATGGCCCCGGAGTCACCTAGTGCAG | 15100 fluorescence intensity (a.u.)
GGATAATGAATGTTTTATTGTCCATAGTCTTTGCGCTTTTCGGAGTCACCTAGTGCAG | 5600 fluorescence intensity (a.u.)
AAGATTGAGCGTTGGGCAATTGTTAATTTCTCTGCTCGGTCGGAGTCACCTAGTGCAG | 11900 fluorescence intensity (a.u.)
GTAAAATTAAATGATATAAATTATGATAAGTCGAAAAGAACGGAGTCACCTAGTGCAG | 20200 fluorescence intensity (a.u.)
AAAATCACCTACAAATTTACATCACAAAATTATCCCCAAACGGAGTCACCTAGTGCAG | 5310 fluorescence intensity (a.u.)
GTGACTGAATTGGCATCCATATCGCTTCTCGCTGCTCATCCGGAGTCACCTAGTGCAG | 10400 fluorescence intensity (a.u.)
GTTTAATATTTATAATTAATTTTCAAACATCCGATGTGATCGGAGTCACCTAGTGCAG | 19000 fluorescence intensity (a.u.)
GTAATTGAGAAAGTAAATACCAATATACTCCCTCCGGTTACGGAGTCACCTAGTGCAG | 11000 fluorescence intensity (a.u.)
GTAGAATTATATTACAATTATACTATAAGTTATGGTTACCCGGAGTCACCTAGTGCAG | 5770 fluorescence intensity (a.u.)
TATGACTAATTAACTACACCTCTTCTTCCACTATAAGTACCGGAGTCACCTAGTGCAG | 25100 fluorescence intensity (a.u.)
GAGATTGACAGTTCAAAGGAAATCAGAGGTGAGTGATTCTCGGAGTCACCTAGTGCAG | 16100 fluorescence intensity (a.u.)
TTGGAGGGGATATGATTTCTGTTATACTGTATCAGATTATCGGAGTCACCTAGTGCAG | 3230 fluorescence intensity (a.u.)
TATAATTAAATCTTTACAACAAGATATTGCATGATTATATCGGAGTCACCTAGTGCAG | 10800 fluorescence intensity (a.u.)
GATGATGATGAGGAGGATGACCAGGATGGTGGAGACTGGGCGGAGTCACCTAGTGCAG | 4950 fluorescence intensity (a.u.)
CTCATAGACTGATCTTGGGTTCAATACAAAAGGCCCATGTCGGAGTCACCTAGTGCAG | 4770 fluorescence intensity (a.u.)
AGTTTATTGCCAATTTTAATAAGTACATATAAAATCTTGCCGGAGTCACCTAGTGCAG | 14600 fluorescence intensity (a.u.)
CAATTAACCTTTACAGGTTAATTTTGTTTGATCAATTGCACGGAGTCACCTAGTGCAG | 4000 fluorescence intensity (a.u.)
GATATCAATCTTTGTCCTAATGAACAGTAATGATGGTCTCCGGAGTCACCTAGTGCAG | 7430 fluorescence intensity (a.u.)
GCCTAAATAGACTCAATTCAGCCTTATATAAGTCAAAGAACGGAGTCACCTAGTGCAG | 4990 fluorescence intensity (a.u.)
AATATGAATGATTAAAATTCTTCATTTTAGACATACCTCACGGAGTCACCTAGTGCAG | 22200 fluorescence intensity (a.u.)

Sequence | binding signal
TGATGATTGTTAGTGGATGATGATGTGGCATATTTGCATGCGGAGTCACCTAGTGCAG | 44300 fluorescence intensity (a.u.)
ATGCCTCTAATTTCATGTTTAATAATATTGTAATACATATCGGAGTCACCTAGTGCAG | 3940 ± 125 fluorescence intensity (a.u.)
TGACAAACTCCACCTTAATTAAATATTGGTCTCGTTTCACCGGAGTCACCTAGTGCAG | 4330 fluorescence intensity (a.u.)
AGAAAATTGGATGATGGACGTCCTTTTGGTTTGCTAGCTTCGGAGTCACCTAGTGCAG | 25400 fluorescence intensity (a.u.)
GATAATTTGATGCTAGTTTGATTCCAAGCTCCATTGCATCCGGAGTCACCTAGTGCAG | 28000 fluorescence intensity (a.u.)
CCGAGCTGATTAACTATGAAAGTCAAGGCCAAGTCAATATCGGAGTCACCTAGTGCAG | 8800 fluorescence intensity (a.u.)
AATGACATTACACTCAAGTTCAATCAAATCATAACTTCACCGGAGTCACCTAGTGCAG | 7260 fluorescence intensity (a.u.)
TCTAATTTGACAGAAAACATCCAAGGAAATCTTGCAAATTCGGAGTCACCTAGTGCAG | 31700 fluorescence intensity (a.u.)
TAATGATGGAAACTTCTCCTACTTGGCAGTATGTTATGGTCGGAGTCACCTAGTGCAG | 4550 fluorescence intensity (a.u.)
GTTATTTATTGATTAAACCCAACATCTACATAAACCACATCGGAGTCACCTAGTGCAG | 15400 fluorescence intensity (a.u.)
ATCTGTAATTTATTTTATTATTAGTCTACGTTTAATATTTCGGAGTCACCTAGTGCAG | 8970 fluorescence intensity (a.u.)
GGGCGTGTGGTTGAGAACTTGATTGGGATGATGATGAGACCGGAGTCACCTAGTGCAG | 12200 fluorescence intensity (a.u.)
AAAATAAATTTGACTGTGAATATACGTTAACTGGTCATAGCGGAGTCACCTAGTGCAG | 23100 fluorescence intensity (a.u.)
TTAAATGCAACCAGAAATTTAATTGAATTGAGCTGGAAGCCGGAGTCACCTAGTGCAG | 9630 fluorescence intensity (a.u.)
CCCGAATAAACTGAGATGTTGGTTCAAGAATTACCATCCTCGGAGTCACCTAGTGCAG | 3750 fluorescence intensity (a.u.)
CTTGTCCGCTTAATTAAATTGATACCATTTTCGTTCTTGTCGGAGTCACCTAGTGCAG | 23700 fluorescence intensity (a.u.)
TATATATATATATATATATGTATGTAGAGAGATTATTTTACGGAGTCACCTAGTGCAG | 7560 fluorescence intensity (a.u.)
TCCAACTCCAATCAGTACAAATATCTCAGAACCATGGCACCGGAGTCACCTAGTGCAG | 7500 fluorescence intensity (a.u.)
TCACATATAGAATATGATTGGGGTCCAGCCCAAGAGAGTCCGGAGTCACCTAGTGCAG | 5480 fluorescence intensity (a.u.)
AATAAAATTAGATGATGAATGATTGTAATTGGTTAAGATACGGAGTCACCTAGTGCAG | 26100 fluorescence intensity (a.u.)
TTTTAAACTGTCAGTAGAGTAAACTATGGGCTAGACAGCACGGAGTCACCTAGTGCAG | 4060 fluorescence intensity (a.u.)
